Experimental data: article PMC4336329 (PLoS ONE, 2015)
Screen size: about 310,000 compounds; about 2,200 (0.71%) showed an effect of 50% or more. Effects have a minus sign here. The list shows a part of the results.

molecular target: human ether-à-go-go-related gene (hERG) potassium channel (human, UniProt Q12809); assay: primary screen, population patch clamp on CHO cells stably expressing hERG
Sequence (Q12809 whole entry, looked up): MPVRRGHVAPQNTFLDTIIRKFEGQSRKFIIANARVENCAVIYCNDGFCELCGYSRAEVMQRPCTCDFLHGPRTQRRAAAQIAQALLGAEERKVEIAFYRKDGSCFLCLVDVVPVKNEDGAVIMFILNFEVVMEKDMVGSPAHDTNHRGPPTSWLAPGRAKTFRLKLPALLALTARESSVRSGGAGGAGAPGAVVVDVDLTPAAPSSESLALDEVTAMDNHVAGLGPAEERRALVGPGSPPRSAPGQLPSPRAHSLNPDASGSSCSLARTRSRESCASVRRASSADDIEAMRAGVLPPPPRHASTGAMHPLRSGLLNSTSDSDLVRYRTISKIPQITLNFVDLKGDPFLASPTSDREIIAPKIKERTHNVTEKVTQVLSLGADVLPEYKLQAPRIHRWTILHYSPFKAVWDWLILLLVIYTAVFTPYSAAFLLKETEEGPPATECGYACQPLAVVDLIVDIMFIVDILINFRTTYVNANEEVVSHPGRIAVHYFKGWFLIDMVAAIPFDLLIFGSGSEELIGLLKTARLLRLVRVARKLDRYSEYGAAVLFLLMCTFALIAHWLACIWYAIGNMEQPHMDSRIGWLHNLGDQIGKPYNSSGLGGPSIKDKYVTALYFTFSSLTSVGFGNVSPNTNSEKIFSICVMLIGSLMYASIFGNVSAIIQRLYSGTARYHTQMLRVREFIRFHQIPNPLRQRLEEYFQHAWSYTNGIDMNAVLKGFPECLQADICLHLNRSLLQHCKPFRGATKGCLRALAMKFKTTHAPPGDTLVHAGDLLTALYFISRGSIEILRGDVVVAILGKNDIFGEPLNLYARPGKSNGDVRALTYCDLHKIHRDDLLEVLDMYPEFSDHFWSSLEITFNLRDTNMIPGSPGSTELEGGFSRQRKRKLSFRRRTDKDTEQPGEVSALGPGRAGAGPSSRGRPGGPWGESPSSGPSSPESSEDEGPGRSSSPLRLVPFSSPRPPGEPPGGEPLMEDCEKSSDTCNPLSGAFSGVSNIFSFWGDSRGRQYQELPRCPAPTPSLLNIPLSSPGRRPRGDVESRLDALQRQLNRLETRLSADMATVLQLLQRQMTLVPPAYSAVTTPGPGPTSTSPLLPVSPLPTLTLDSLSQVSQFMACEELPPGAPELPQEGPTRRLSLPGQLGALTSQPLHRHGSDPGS

| SMILES | hERG current change (%, negative = inhibition) at 1uM [%] |
| --- | --- |
| CC(=O)c1cc2c(cc1NC(=O)C1CC=CCC1C(=O)O)OCO2 (centres unmarked) | 8.03 |
| COc1cc(/C=C2\C(=N)N3N=C(S(C)(=O)=O)SC3=NC2=O)cc(OC)c1OCCOc1ccccc1C | 14.3 |
| CCN(CC)S(=O)(=O)c1ccc(C)c(NC(=S)N2CCN(C/C=C/c3ccccc3)CC2)c1 | 12.9 |
| NCC(=O)Nc1ccc(Br)cc1 | 13.6 |
| CN1CC(c2ccc(C#N)cc2)C2(COc3ccccc3C2=O)C12C(=O)Nc1ccccc12 (centres unmarked) | 3.87 |
| Cc1cccc(C)c1NS(=O)(=O)c1ccc(-c2cnc(C3CC3)o2)cc1 | 8.36 |
| CCCC1CC(C)(C(=O)Cn2[nH]c(=O)ccc2=O)OC1=O (centres unmarked) | 5.67 |
| O=C(CCCCCn1c(=S)[nH]c2cc3c(cc2c1=O)OCO3)NCCc1ccccc1 | 14 |
| NC(=O)c1sc2nccc(Nc3ccccc3)c2c1N | -1.77 |
| O=c1c2ccsc2ncn1Cc1ccc(Cl)cc1 | 7.79 |
| N#Cc1ccccc1CN1C(=O)c2ccccc2S1(=O)=O | 16.5 |
| O=C(CSc1nnc(COc2ccccc2)o1)N1CCN(c2ccccc2)CC1 | 12.2 |
| COc1ccc(Br)c(/C=N/NC(=O)COc2ccc(-c3ccccc3)cc2)c1 | 8.4 |
| COc1ccc(C(=O)/C(C#N)=N/Nc2ccccc2[N+](=O)[O-])cc1 | 7.61 |
| C=CCn1c(SCC(=O)/C(C#N)=C(\C)N)nnc1C1CCCCC1 | 2.77 |
| O=C(CCCOc1ccccc1)NCCc1ccccc1 | 4.62 |
| CSc1ccccc1C(=O)NC1CC2CCC1C2 (centres unmarked) | 6.38 |
| C=CCOc1ccc(C2=NOC(C(=O)Nc3ccc4c(c3)OCCO4)C2)cc1OC (centres unmarked) | 14 |
| CCC(=O)NC(c1ccco1)c1cc(Cl)c2ccccc2c1O (centres unmarked) | 8.08 |
| O=C(Nc1ccc(S(=O)(=O)N2CCOCC2)cc1)c1ccccc1F | 14.1 |
| Cc1cccc(C)c1NC(=O)CSCC(=O)c1ccc(O)c(O)c1 | 7.69 |
| Cc1ccc(CS(=O)(=O)CCC(=O)N2CCOCC2)cc1 | 14.5 |
| Cc1noc(C)c1S(=O)(=O)N(CC(=O)NCc1ccc(Cl)cc1)c1ccc2c(c1)OCO2 | -13.9 |

| SMILES | hERG current change (%, negative = inhibition) at 1uM [%] |
| --- | --- |
| CC1=NN(C(N)=S)C(=O)C1N=Nc1cccc(C)c1 (centres unmarked) | 6.89 |
| COCCCn1c(SCC(=O)n2c(C)c(C)c3ccccc32)nnc1-c1ccoc1C | 7.76 |
| O=S(=O)(NCc1cccs1)c1ccc(Br)s1 | 8.54 |
| Cn1cc(/C=C2\SC(=O)N(c3ccc(O)cc3)C2=O)c2ccccc21 | 8.17 |
| COc1ccc(S(=O)(=O)Cc2ccc(C(=O)N3CCN(Cc4ccccc4)CC3)o2)cc1 | -13.2 |
| CN(C)S(=O)(=O)c1cccc(NC(=O)Cn2cnc3ccccc3c2=O)c1 | 14.3 |
| CN(C)S(=O)(=O)c1cccc(C(=O)Nc2ccccc2Cl)c1 | 1.91 |
| COc1cccc(CNc2ccc(S(N)(=O)=O)cc2)c1OCc1ccccc1F | 15.3 |
| O=[N+]([O-])c1ccc(N/N=C/c2cn(-c3ccccc3)nc2-c2ccccc2)cc1 | 15.4 |
| CC(=O)c1ccc2cccc3c2c1N=CN3C | 9.04 |
| Nc1ccc2c(c1)sc1ccccc12 | -1.2 |
| Cc1ccc(-c2n[nH]c3c2CCC3)cc1 | 6.85 |
| CS(=O)(=O)O.Nc1ncnc2c1ncn2C1CCCC1 | -1.9 |
| O=C(NC1CCN(C(=S)NCCc2ccccc2)CC1)C1CCCCC1 | 9.36 |
| Cn1c(SCC(=O)NCc2ccc(F)cc2)ncc(C(=O)Nc2ccccc2)c1=O | 5.88 |
| C/C(=N\N=C\c1ccccc1)c1nnn(-c2nonc2N)c1C | 12.4 |
| CCCC(=O)NCC(c1cccs1)S(=O)(=O)c1ccc(C)cc1 (centres unmarked) | 14.6 |
| CCOC(=O)CC/C(C)=N\N=C1\SC(CC(=O)O)C(=O)N1c1ccccc1 (centres unmarked) | 9.29 |
| Cc1c(Cl)cccc1NC(=O)[C@@]1(CC(=O)O)CC(/C=C/c2ccccc2)=NO1 | 14.3 |
| CC(=O)c1cccc(NC(=O)C(OC(=O)/C=C/c2ccc3c(c2)OCO3)c2ccccc2)c1 (centres unmarked) | 1.74 |
| O=c1ccc2cc(S(=O)(=O)NCc3ccccc3)ccc2[nH]1 | 13.6 |
| Cc1ccc(-c2cn3cc([N+](=O)[O-])ccc3n2)cc1 | 1.75 |
| Cc1cc(Br)ccc1NC(=O)CN(C)C(=O)c1ccc2ccccc2n1 | 0.389 |

| SMILES | hERG current change (%, negative = inhibition) at 1uM [%] |
| --- | --- |
| CC1CCCC(C)N1C(=O)COC(=O)c1ccc[nH]c1=O (centres unmarked) | 5.03 |
| S=c1[nH]nc(C2CCCCC2)n1Cc1ccccc1 | -6.41 |
| c1cc2nnnn2nc1N1CCCCC1 | 10.1 |
| COc1ccc(S(=O)(=O)N2CCC(C(=O)N3CCCCCC3)CC2)cc1 | 5.86 |
| COc1cc(/C=C/C(=O)O)cc(S(=O)(=O)Nc2cccc(SC)c2)c1OC | 21 |
| CCCCNS(=O)(=O)c1ccc(S(=O)(=O)NCc2ccncc2)cc1 | 4.17 |
| Cc1noc(C)c1COc1cccc(C(=O)OCCOc2ccc(F)cc2)c1 | 12.5 |
| O=C(CNC(=O)c1ccccc1)NCC(=O)OCC(=O)c1ccc([N+](=O)[O-])cc1 | 6.84 |
| Cc1ccccc1-n1c(-c2ccco2)n[nH]c1=S | 15.6 |
| CC1(C)CN(c2ccc(C(=O)c3ccccc3)cc2)C1=O | 6.95 |
| Cc1cc(C)cc(NC(=O)COC(=O)c2cc(C)oc2C)c1 | 2.35 |
| O=C(Nc1ccccc1F)C(c1ccccc1)c1ccccc1 | 14.3 |
| Cc1nnc(SCC(=O)Nc2ccc(S(=O)(=O)N3CCCC3)cc2)n1N | 13.1 |
| Br.CN(CC(O)C[NH+]1CCOCC1)S(=O)(=O)[O-] (centres unmarked) | 17 |
| COc1ccc(-n2c(C)cc(SC)c(C(C)=O)c2=S)cc1 | -3.9 |
| Cc1ccc(NC(=O)C2CCN(c3ncnc4c3nc3n4CCCCC3)CC2)cc1Cl | 3.62 |
| O=C1C(Cc2c[nH]c3ccccc23)NC(=S)N1Cc1ccccc1 (centres unmarked) | -14.4 |
| Nc1c(-c2ccccc2)cnn1-c1cccc([N+](=O)[O-])c1 | 7.6 |
| O=C(Cc1cccs1)N1CCN(S(=O)(=O)c2ccc(Cl)c(C(F)(F)F)c2)CC1 | 8.43 |
| CCCNC(=O)NCCC12CC3CC(CC(C3)C1)C2 | 9.13 |
| COCCNC(=O)c1cc2cc(Br)cc(OC)c2oc1=O | -0.621 |
| CCOC(=O)Cn1c(=O)oc2cc(S(=O)(=O)N(C)Cc3ccccc3)ccc21 | 6.29 |
| O=C(NCCCNC(=O)c1ccccn1)c1ccc(Br)cc1 | 13.2 |

| SMILES | hERG current change (%, negative = inhibition) at 1uM [%] |
| --- | --- |
| CCC1Oc2ccc(C)cc2N(CC(=O)NC2CCCCC2)C1=O (centres unmarked) | 6.69 |
| COc1ccc(C2CC(c3ccc(C)cc3)=NN2C(=O)CCC(=O)O)cc1OC (centres unmarked) | 10.4 |
| CC1(C)CC(=O)C=C(Nc2ccc(Cl)c(Br)c2)C1 | 0.929 |
| CCN(CC(=O)Nc1ccc(NC(C)=O)cc1)C(=O)c1cc2c(s1)CCCC2 | 7.65 |
| O=S(=O)(NCCCN1CCOCC1)c1ccc(Cl)cc1 | 15 |
| COc1ccc(/C=C2/Sc3ccc(C(=O)NCCCN4CCOCC4)cc3NC2=O)cc1OC | 12.3 |
| CCOc1ccc(C(=O)Nc2cc3c(cc2N2CCCC2)n(CC)c(=O)n3CC)cc1OCC | 8.98 |
| CCOC(=O)C1CCN(S(=O)(=O)c2c(C)noc2C)CC1 | -13.2 |
| CCn1c2ccccc2c2cc(NC(=O)C(=O)N3CCOCC3)ccc21 | 13.5 |
| O=C1C(Nc2ccccc2)=C2CCCC=C2N1c1ccccc1 | 9.18 |
| CN(c1ccccc1)S(=O)(=O)c1ccc(NC(=O)c2ccc(-c3ccccc3)cc2)cc1 | 6.91 |
| O=C(OCc1nnc(-c2cccs2)o1)C1=NN(c2ccccc2)C(=O)CC1 | 1.34 |
| Cc1cc2oc(C(=O)Nc3ccc(S(=O)(=O)N4CCCC(C)C4)cc3)cc(=O)c2cc1Cl (centres unmarked) | 10.5 |
| CC1=NN(S(=O)(=O)c2ccc(F)cc2)C(=O)c2ccccc2O1 | 4.16 |
| O=C(O)CSC(C(=O)Nc1ccc(Br)cc1)c1ccccc1 (centres unmarked) | 1.04 |
| COc1ccc(NCc2nnc(SCC(=O)NCc3ccccc3)n2-c2ccccc2OC)cc1 | -0.185 |
| O=C(CSc1nccc(-c2cccs2)n1)Nc1ccc(Cl)cc1 | 7.66 |
| COc1ccc(C(NC(=O)/C=C/c2ccco2)c2ccc(OC)c(OC)c2)cc1OC | 11.4 |
| Cn1c(C(=O)Nc2ccc3c(c2)OCCO3)cc2sccc21 | 0.819 |
| COc1ccc(OC)c(CN(CCN2CCOCC2)S(=O)(=O)c2ccc(NC(C)=O)cc2)c1 | 3.55 |
